Source: PMC12040169 (PLOS Biology, 2025)
The other results are listed elsewhere or left out.

System: T1, C. trachomatis L2/434/Bu expressing GFP (CTL2-GFP)
T1 construct: L2/434/Bu GFP intracellular growth in HeLa cells
Set-up: species or system HeLa; C. trachomatis total inclusion area by high-content imaging, normalised to DMSO
Details: total inclusion area; 28.5 h, 10 µM; inhibitor
Summary of the method: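 High-content imaging followed the bulk GFP/resorufin measurement: fixed, Hoechst-stained cells were scored for GFP inclusions and host nuclei per well. Total inclusion area and count served as growth proxies, nuclei number as the viability proxy. MIC calculation matched the bulk assay.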

| Structure (SMILES) | % of control remaining |
| --- | --- |
| CN1CCc2nc(SCC(=O)NC(C)(C)C)c(C#N)cc2C1 [CBK267445] | 101.586 |
| Cc1cccn2cc(C(=O)NC(C)CN3CCCC3)nc12 (centres unmarked) [CBK281714] | 94.9954 |
| O=S(=O)(Nc1ccc2ncccc2c1)c1ccc(OC(F)(F)F)cc1 [CBK045339] | 99.5552 |
| COc1cnc(-c2cnn(C)c2)c(NC(=O)c2cc(C)oc2C)n1 [CBK145218] | 102.294 |
| Cc1nn(CCNC(=O)C2CC(=O)N(CC(C)C)C2)c(C)c1C (centres unmarked) [CBK281630] | 115.996 |
| Cc1[nH]c2ccccc2c1C(CC(=O)c1ccc(Br)cc1)C(=O)O (centres unmarked) [CBK269480] | 81.5274 |
| Cc1[nH]c(=O)[nH]c(=O)c1Cc1ccccc1 [CBK113244] | 89.3792 |
| COc1cc(C)nc(N2CCN(C(=O)CCc3ccsc3)CC2)n1 [CBK304572] | 36.0635 |
| O=C(NC(=S)Nc1ccc(OCc2ccccc2)cc1)c1cccnc1 [CBK266224] | 125.005 |
| COC(=O)c1sc2ncccc2c1NS(=O)(=O)c1cc(Br)c(Cl)s1 [CBK049973] | 98.1667 |
| O=C(CN(c1cccc(Cl)c1)S(=O)(=O)c1ccccc1)NN=C1CCCCCC1 [CBK262519] | 77.4612 |
| CC(=O)N1CCN(C(C(=O)O)c2c[nH]c3cc(NC(=O)c4ccccc4)ccc23)CC1 (centres unmarked) [CBK286680] | 71.9178 |
| Cc1ccc(C(=O)N2C[C@H]3NC(=O)c4ccccc4C(=O)[C@@]3(C)C2)cc1 [CBK285315] | 90.8549 |
| CCN(CC)C(=O)Cc1cc(C(=O)O)c2ccccc2n1 [CBK286942] | 77.5867 |
| CC1(C)CC(N(Cc2ccc(F)cc2)Cc2c[nH]cn2)CC(C)(C)N1 [CBK282540] | 98.7369 |
| Cc1nc(-c2ccc(N3CC(C(N)=O)CCC3C)nc2)[nH]c(=O)c1C (centres unmarked) [CBK306463] | 48.1915 |
| O=C1CC(c2ccccc2)c2snc(C(=O)O)c2N1 (centres unmarked) [CBK287111] | 105.906 |
| CC(=O)c1cccc(NS(=O)(=O)c2ccc(OC(F)(F)F)cc2)c1 [CBK043606] | 67.1853 |
| COc1ccc2[nH]cc(CCNC(=O)N3CCN(CCN4CCOCC4)CC3)c2c1 [CBK155818] | 92.624 |
| O=C(Nc1ccncc1)c1c(O)c2ccccc2[nH]c1=O [CBK288017] | 97.7585 |
| O=C(O)c1cccc(NS(=O)(=O)c2ccc3c(c2)CN(C(=O)C(F)(F)F)CC3)c1 [CBK155709] | 94.9255 |
| CC(CNC(=O)c1cncc(Br)c1)NC(=O)c1cncc(Br)c1 (centres unmarked) [CBK262040] | 77.7941 |
| CC(=O)Nc1ccc(OCC(O)Cn2c(CO)nc3ccccc32)cc1 (centres unmarked) [CBK304549] | 34.3197 |
| CC(C)c1ccc(-c2csc(Nc3cccc(C(=O)O)c3)n2)cc1 [CBK299880] | 90.822 |
| Cc1cc(C)n(Cc2cccc(C(=O)NC(C)Cc3ccccn3)c2)n1 (centres unmarked) [CBK281449] | 86.2109 |

| Structure (SMILES) | % of control remaining |
| --- | --- |
| COc1ccc(CNC(=O)c2cnc(-c3ccc(F)cc3)c(-c3ccc(C(C)=O)s3)c2)cc1 [CBK036577] | 91.2999 |
| CC1CCN(S(=O)(=O)c2ccc3c(c2)oc(=O)c2cc(S(=O)(=O)N4CCC(C)CC4)ccc23)CC1 [CBK266314] | 134.084 |
| CC(=O)Nc1cccc(CN(C)C(CCO)c2ccccc2)c1 (centres unmarked) [CBK305127] | 47.8137 |
| CCCC(=O)c1ccc(S(=O)(=O)N2CCN(CCCOC3CCCCO3)CC2)cc1 (centres unmarked) [CBK062858] | 76.2469 |
| O=S(=O)(Nc1nc2c(s1)CCCC2)c1cc(Cl)ccc1Cl [CBK096578] | 102.456 |
| CC(=O)N(C)c1ncc(Br)cc1C(=O)NCc1ccc2c(c1)CCO2 [CBK076544] | 104.2 |
| Cc1ccc(Cl)c(OC(C)C(=O)NCC2(N3CCOCC3)CCSC2)c1 (centres unmarked) [CBK305681] | 38.8562 |
| CC12CCC(C(=O)O)(c3nc4cc([N+](=O)[O-])ccc4nc31)C2(C)C (centres unmarked) [CBK266577K] | 90.9515 |
| COc1ccc(CNc2ccc(C3c4ccsc4CCN3C(C)=O)cc2)cc1 (centres unmarked) [CBK286444] | 106.157 |
| COc1ccc(-c2noc(CSc3nnc(-c4cccs4)n3-c3ccccc3)n2)cc1 [CBK268390] | 75.0907 |
| Cc1ccsc1C(=O)N1CCC(n2cc(C(C)(C)O)nn2)CC1 [CBK307069] | 89.4837 |
| O=C(O)CSc1nc2ccc(NC(=O)COc3ccc(Cl)cc3)cc2s1 [CBK299773] | 122.136 |
| CSc1nc(C#N)c(N)c(SC2C=CCCC2)n1 (centres unmarked) [CBK021817] | 85.2977 |
| O=C(O)c1ccc(CNC(=S)Nc2ccc([N+](=O)[O-])cc2)cc1 [CBK267037] | 103.406 |
| COCCc1nsc(N2CCC(Oc3cccnc3N(C)C)C2)n1 (centres unmarked) [CBK305418] | 51.7235 |
| COc1ccc(-c2nc(NC(=O)c3ccccn3)cnc2-c2cccc(C(F)(F)F)c2)cc1 [CBK036785] | 79.9569 |
| Clc1cncc(N2CCCC2)n1 [CBK083595] | 87.292 |
| C[C@]12CN(C3CCSC3)C[C@H]1C(=O)Nc1ccccc1C(=O)N2 (some centres unmarked) [CBK284788] | 105.716 |
| CC(C)CNS(=O)(=O)c1ccc(N2CCCC2=O)cc1 [CBK304981] | 41.7957 |
| Oc1ccc2ccccc2c1/C=N/c1ccc(-c2cc(-c3ccc(/N=C/c4c(O)ccc5ccccc45)cc3)ncn2)cc1 [CBK261621] | 84.6114 |
| CCN(CCN(C)C)Cc1ccc(F)cc1F [CBK261877] | 98.2976 |
| Cn1c(=O)c2c(O)cc(=O)n(Cc3ccccc3)c2n(C)c1=O [CBK291245] | 111.949 |
| CC(c1ccncc1)N1Cc2cccc(C(=O)O)c2C1=O (centres unmarked) [CBK291137] | 89.6543 |
| CC(=O)N1CCn2nc(C(=O)N(CCO)Cc3ccccc3)cc2C1 [CBK306769] | 74.5638 |
| COC(=O)Cn1c(=O)sc2cccc(Cl)c21 [CBK026076] | 44.8093 |
